The campaign covered roughly 48,000 compounds. About 1,200 (2.5%) were called active. Not shown: some 2% with an inconclusive outcome.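 How the source made its calls: active means activation of at least 60% and not above a set upper limit (about 1 call in 100 departs from these limits); inconclusive means activation of 40% to 60%, or above that upper limit; inactive means activation under 40%.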 Some of the results follow.
target: Probable G-protein coupled receptor 32 (Homo sapiens) (UniProt O75388); test: qHTS for Agonists of Human Resolvin D1 Receptor DRV1; conditions: CHO-K1 GPR32 beta-arrestin PathHunter luminescence, 90 min; at 76.9 µM; hits give high values; zero percent set by DMSO-only wells; further: 0% is about no effect
Summary of the method: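 Agonism was scored as beta-arrestin recruitment to ProLink-fused GPR32 in stably transfected CHO-K1 cells, giving a chemiluminescent beta-Gal signal; compounds were incubated 90 min at 37 °C.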

UniProt O75388, sequence (O75388 whole entry, looked up, the tested form may be a part): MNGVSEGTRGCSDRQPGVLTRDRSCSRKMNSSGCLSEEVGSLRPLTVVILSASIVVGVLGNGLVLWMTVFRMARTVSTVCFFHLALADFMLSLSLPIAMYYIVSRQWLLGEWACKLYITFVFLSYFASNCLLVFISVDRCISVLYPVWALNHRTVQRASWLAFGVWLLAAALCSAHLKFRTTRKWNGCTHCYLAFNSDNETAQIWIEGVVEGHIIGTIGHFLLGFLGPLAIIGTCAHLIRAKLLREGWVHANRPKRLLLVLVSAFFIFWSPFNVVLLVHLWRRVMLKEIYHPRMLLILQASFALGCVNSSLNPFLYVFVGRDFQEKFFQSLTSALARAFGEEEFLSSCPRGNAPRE

SMILES | activation
O=C(NCCc1csc(-c2ccc(C(F)(F)F)cc2)n1)c1ccccc1Cl | inactive: -2.15%
CCOCCc1nn2c(=O)cc(COC(=O)c3ccccc3Br)nc2s1 | inactive: -16.4%
Cc1ccc(CNC(=O)C(=O)NCC(c2cccs2)S(=O)(=O)c2ccccc2)cc1 (stereo not given) | inactive: -5.71%
CC(Cc1cccc(C(F)(F)F)c1)NCCOC(=O)c1ccccc1 (stereo not given) | active: 63.4%
CCCn1c(=N)c(C(=O)NCc2ccccc2)cc2c(=O)n3cccc(C)c3nc21 | inactive: -2.67%
CCN(Cc1ccccc1)C(=O)CN1C(=O)COc2ccc(S(=O)(=O)N3CCOCC3)cc21 | inactive: -36.6%
CCN(c1ccc(C)cc1C)S(=O)(=O)c1nnc(NC(=O)c2ccc(F)cc2)s1 | inactive: 8.52%
COc1cccc(-c2cc(C(=O)Nc3ccc(OC)cc3OC)no2)c1 | inactive: 9.64%
Cc1ccc2oc(=O)c(-c3nc(-c4cccs4)no3)cc2c1 | inactive: -8.88%
COC(=O)c1ccccc1NC(=O)Cc1nc(-c2ccc(OC)cc2)no1 | inactive: -6.02%
COc1ccc(-n2cnc3cc(C(=O)NCCC4=CCCCC4)ccc32)cc1 | inactive: 8.56%
Cc1nn(CCC(=O)Nc2cccc(C#N)c2)c(C)c1S(=O)(=O)N1CCC(C)CC1 | inactive: -0.851%
Cc1ccc(NC(=O)C2CCCN2S(=O)(=O)c2ccc3c(c2)n(C)c(=O)c(=O)n3C)cc1 (stereo not given) | inactive: -9.16%
CCOCCCNC(=O)CCC(=O)NNc1nc2ccccc2c2nc(C)nn12 | inactive: -6.99%
Cc1nc2nc(SCC(=O)NCCc3ccc(Cl)cc3)nn2c(C)c1Cc1c(F)cccc1Cl | inactive: -10.8%
O=C(Nc1cccc(C(=O)OCc2cc(=O)n3ccsc3n2)c1)c1ccc(F)cc1 | inactive: 9.53%
COc1ccc(OC)c(NC(=O)CN(c2ccccc2OC)S(=O)(=O)c2ccc(C)cc2)c1 | inactive: 33.2%
Cc1csc2nc(COC(=O)c3ccc(NC(=O)c4ccccc4Br)cc3)cc(=O)n12 | inactive: -4.74%
Cc1nn(CC(=O)NCc2ccco2)c(=O)c2nn(-c3ccccc3)c(C)c12 | inactive: 5.54%
CC(=O)N1CCc2cc(CNS(=O)(=O)c3ccccc3C(F)(F)F)ccc21 | inactive: -4.67%
CC(=O)Nc1ccc(NC(=O)c2c(-c3ccccc3)noc2C)cc1 | inactive: -0.0194%
O=C(O)c1ccc(CSc2nc3cccnc3n2Cc2cccc(F)c2)cc1 | inactive: -6.86%

SMILES | activation
Cc1cc(C)cc(NC(=O)Cn2c(C)cc(C)c(C#N)c2=O)c1 | inactive: 1.67%
O=C(CSc1nc2ccccc2n1Cc1cccc(C(F)(F)F)c1)NCc1ccccc1 | inactive: -17.4%
CCOc1cccc(C2Oc3nc(SC)nnc3-c3ccccc3N2C(C)=O)c1OC (stereo not given) | inactive: -2.81%
COC(=O)CC1Oc2ccc(Cl)cc2-n2cc(-c3ccc(C)cc3)nc21 (stereo not given) | inactive: -1.15%
Nc1ncc(S(=O)(=O)N2CCN(c3ccccc3)CC2)cn1 | inactive: -7.93%
COc1ccc(Cl)cc1NC(=O)c1oc2ccc(S(=O)(=O)N3CCCCC3)cc2c1C | inactive: -7.13%
COc1ccc(N2CCN(C(=O)c3ccc(CS(=O)c4cccc(C)c4)o3)CC2)cc1 (stereo not given) | inactive: -16%
COc1cc(NC(=O)CSc2ccc(-c3sc(C)nc3C)nn2)cc(OC)c1 | inactive: -0.905%
Cc1ccc(S(=O)(=O)C(CNC(=O)C(=O)NCCc2ccc(F)cc2)c2cccs2)cc1 (stereo not given) | inactive: 15.9%
O=C(CSc1nc2c([nH]c3ccccc32)c(=O)n1-c1ccc(F)cc1)Nc1ccc2c(c1)OCO2 | inactive: -5.18%
Cc1ccc(-c2onc(C)c2C)cc1S(=O)(=O)N1CCc2ccccc21 | inactive: -16.4%
Cc1nc(-c2ccc(Cl)cc2)sc1CCNC(=O)C(=O)Nc1ccccc1C#N | inactive: 47%
Cc1cccc(CCNC(=O)CCc2c(C)nc3c(-c4ccc(F)cc4)c(C)nn3c2C)c1 | inactive: -0.0802%
CN1CCN(c2ccc(-c3nc(-c4ccccc4)no3)cc2[N+](=O)[O-])CC1 | active: 83.1%
COC(=O)c1ccc(NC(=O)C(c2ccccc2)N2Cc3ccccc3C2=O)cc1 (stereo not given) | inactive: -20.4%
COc1ccc(N2CCN(C(=O)c3cc4c(s3)-c3c(C)cccc3OC4)CC2)cc1 | inactive: -5.89%
Cc1cc(C)cc(NC(=O)C2CCCN(c3nnc(-n4c(C)ccc4C)s3)C2)c1 (stereo not given) | inactive: 0.997%
COCCn1c(SCC(=O)Nc2ccc(Br)cc2)nc2c([nH]c3ccccc32)c1=O | inactive: 15.4%
CCCCN(C(=O)Nc1ccc(OCC)cc1)C1CCN(C(C)=O)CC1 | inactive: -15.7%
CCCc1ccc(OC(=O)c2sc3ncn(Cc4cccc(F)c4)c(=O)c3c2C)cc1 | inactive: -8.38%
COc1ccc(NC(=O)Cn2c(SCc3c(F)cccc3Cl)nc3ccncc32)cc1OC | inactive: 2.49%
COC(=O)/C=C(/C)N | inactive: 4.21%

SMILES | activation
CCN(CC)c1ccc(NC(=O)C2CCCN(S(=O)(=O)c3ccc4c(c3)oc(=O)n4C)C2)c(C)c1 (stereo not given) | inactive: 6.61%
CCOC(=O)c1c(S(=O)(=O)N2CCN(c3cc(Cl)ccc3C)CC2)c(C)n(C)c1C | inactive: -2.62%
Cc1ccc(NC(=O)C2CCCN(S(=O)(=O)c3ccc(C)cc3)C2)cc1 (stereo not given) | inactive: -11.9%
CCC(Sc1nc2n[nH]c(C)c2c(=N)n1-c1ccc(Br)cc1)C(=O)N(CC)CC (stereo not given) | inactive: -9.24%
COc1ccccc1CSc1nc2n(n1)C(c1ccccc1)C(C(=O)Nc1ccc(C)cc1)=C(C)N2 (stereo not given) | inactive: -3.94%
COc1cc(NS(=O)(=O)c2ccc3c(c2)OCC(C(=O)N2CCCC2)O3)cc(OC)c1 (stereo not given) | inactive: 19.5%
COc1ccccc1-c1ncnn1-c1sc2c(c1C#N)CCCCC2 | inactive: 40.9%
COc1ccc(NC(=O)Cn2ncc3c4ccccc4n(Cc4ccccc4)c3c2=O)cc1OC | inactive: -2.58%
NC1(C(=O)O)CCCCC1 | inactive: 8.46%
Cc1ccc(NC(=O)Cn2nc(-c3ccc(Cl)cc3)c3ccccc3c2=O)cc1 | inactive: -5.95%
CCCC(=O)OCc1cnc(C)c2oc(=O)c(C(=O)Nc3ccc(F)cc3C)cc12 | inactive: -11.9%
Cc1cccc(CNC(=O)C2CCN(S(=O)(=O)c3cccc4nonc34)CC2)c1 | inactive: 37.4%
Cc1ccc(C)c(NC(=O)C2CCCN2S(=O)(=O)c2ccc3c(c2)CCCC(=O)N3)c1 (stereo not given) | inactive: 3.24%
CCC1=Nc2cc(C(=O)N3CCC(C)CC3)ccc2Sc2ccc(C)cc21 | inactive: -26.3%
COc1ccc(-c2noc(CNC(=O)c3ccc(OC)cc3OC)n2)cc1 | inactive: -5.4%
CCOc1ccc(CCNC(=O)C2CC(=O)N(CCc3ccc(OC)c(OC)c3)C2)cc1OCC (stereo not given) | inactive: -5.82%
Cc1ccc2nc(N3CCN(c4ccc(F)cc4)CC3)c3nnnn3c2c1 | inactive: 4.39%
COc1cccc(-c2noc(COc3cccc(C)c3C)n2)c1 | inactive: -12.4%
CCCCN(CC)CCNC(=O)c1nn(-c2ccc(OC)cc2)c(=O)c2c1c1ccccc1n2C | inactive: -12.1%
N#C/C(=C\c1ccccc1)c1nc(-c2cc3c(ccc4ccccc43)oc2=O)cs1 | inactive: 1.28%
CCOC(=O)c1c(NC(=O)COc2ccc(OC)cc2)sc(C(=O)N(CC)CC)c1C | inactive: -23.6%
CCOC(=O)c1cccc(NC(=O)Cn2cnc3nc4c(cc3c2=O)CCCC4)c1 | inactive: -5.72%

SMILES | activation
CCN(CC)CCCNC(=O)c1ccc2c(c1)NC(=O)C(CS(=O)(=O)Cc1ccc(F)cc1Cl)N2 (stereo not given) | inactive: 0.542%
COCCNC(=O)c1sc2nc3n(c(=O)c2c1C)CCC3 | inactive: -3.52%
COc1ccc(-c2ccc(N)[n+](CCCC(=O)O)n2)cc1 | inactive: -8.7%
CCc1ccc(NS(=O)(=O)c2ccc3[nH]cc(C(=O)NCCc4ccccc4)c(=O)c3c2)cc1 | inactive: -7.52%
CCNC(=O)NCCCOc1cccc(CN2CCCCC2)c1 | inactive: -2.65%
COc1ccc(N2CC(c3nc(-c4ccccc4C)no3)CC2=O)cc1Cl (stereo not given) | inactive: 45.9%
CCCCC(=O)Nc1cc(-c2cn3cccnc3n2)ccc1C | inactive: -13.6%
CCOc1ccc(-c2c(C)nn3c(C)c(C(=O)NC(C)c4ccccc4)cnc23)cc1OCC (stereo not given) | inactive: -2.77%
CCCn1cc(S(=O)(=O)c2ccc(OCC)cc2)c(=O)c2cc(C)ccc21 | inactive: 4.28%
O=C(Cn1ccn(-c2ccc(F)c(F)c2)c(=O)c1=O)NCc1ccccc1 | inactive: -7.22%
Cc1c(-c2cccc(NC(=O)Cc3ccccc3)c2)nc2ncccn12 | inactive: 30.2%
COc1ccc(CNc2nc(-c3ccccc3)nn2C(=O)c2ccccc2OC)cc1 | inactive: -7.27%
COc1cc(Cl)c(S(=O)(=O)N2CCN(c3c(C)cccc3C)CC2)cc1Cl | inactive: -8.87%
Cc1ccc(OCCSc2nc3ccccc3n2CC(=O)N2CCOCC2)cc1C | inactive: 18.4%
Cc1cc(C)c(NC(=O)c2cc(S(=O)(=O)N3CCCC3)cn2C)c(C)c1 | inactive: -6.75%
CN(Cc1ccccc1)C(=O)c1c[nH]c2ccc(S(=O)(=O)Nc3ccccc3F)cc2c1=O | inactive: -6.4%
CCOC(=O)c1cc2c(=O)n3ccccc3nc2n(CC2CCCO2)c1=NC(=O)c1ccc(OCC)cc1 (stereo not given) | inactive: -1.48%
CCOc1cc(C(=O)N2CC(=O)Nc3ccc(F)cc3C2c2ccccc2)cc(OCC)c1OCC (stereo not given) | inactive: 3.72%
COc1cc2nc(NCCc3ccc(Cl)cc3)n3nc(-c4ccccc4)nc3c2cc1OC | inactive: 10.2%

Source: PubChem BioAssay AID1346428 (National Center for Advancing Translational Sciences (NCATS), 2018)
